From the supplement of paper PMC3334620
In all, about 33,000 sequences were measured (“E-score (-0.5 to 0.5)”: median about -0.012, highest 2% from about 0.29 on). Some of the results follow.

molecular target: T1, Ybr033w (UniProt P38073); test: PBM E-score (8-mer binding enrichment) (E-score (-0.5 to 0.5)); higher = stronger / more preferred TF binding; most listed sequences are background and not binding sites; conditions: protein concentration: 200 nM; construct: GST-full length
T1 sequence: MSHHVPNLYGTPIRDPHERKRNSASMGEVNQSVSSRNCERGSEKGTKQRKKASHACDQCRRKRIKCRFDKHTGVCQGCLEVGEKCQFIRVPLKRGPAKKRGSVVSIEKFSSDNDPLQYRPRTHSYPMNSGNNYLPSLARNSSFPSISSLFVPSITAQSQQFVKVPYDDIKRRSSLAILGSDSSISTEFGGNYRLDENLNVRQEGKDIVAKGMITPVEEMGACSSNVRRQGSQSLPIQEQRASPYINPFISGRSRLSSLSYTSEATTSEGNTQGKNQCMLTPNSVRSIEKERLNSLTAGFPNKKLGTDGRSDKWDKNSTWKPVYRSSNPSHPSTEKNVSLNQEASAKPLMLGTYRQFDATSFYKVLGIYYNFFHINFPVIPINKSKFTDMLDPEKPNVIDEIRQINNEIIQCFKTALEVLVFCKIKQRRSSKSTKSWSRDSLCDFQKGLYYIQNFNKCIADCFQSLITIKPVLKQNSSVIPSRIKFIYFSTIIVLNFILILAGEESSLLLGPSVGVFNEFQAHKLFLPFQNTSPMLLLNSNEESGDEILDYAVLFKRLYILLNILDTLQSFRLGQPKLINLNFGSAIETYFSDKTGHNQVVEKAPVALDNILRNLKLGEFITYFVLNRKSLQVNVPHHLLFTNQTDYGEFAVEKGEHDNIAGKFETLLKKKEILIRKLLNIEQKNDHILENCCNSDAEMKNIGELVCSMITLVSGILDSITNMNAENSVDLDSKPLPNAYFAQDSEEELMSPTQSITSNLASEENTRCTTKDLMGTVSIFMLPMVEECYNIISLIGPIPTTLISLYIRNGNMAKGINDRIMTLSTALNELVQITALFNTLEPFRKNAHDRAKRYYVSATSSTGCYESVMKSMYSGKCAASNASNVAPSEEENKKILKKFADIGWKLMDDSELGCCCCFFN
Experimental: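 Universal 'all 10-mer' protein binding microarrays (Agilent AMADID 015681) probed with GST-tagged S. cerevisiae TFs (full-length or DBD) made by in vitro transcription/translation (PURExpress), about 100-200 nM. Bound TF was detected with fluorescent anti-GST. Each ungapped 8-mer (which stands for itself and its reverse complement) is scored by the PBM enrichment score (E-score), a modified Wilcoxon-Mann-Whitney statistic from -0.5 to +0.5, computed with the Universal PBM Analysis Suite. Scale: above 0.35 generally sequence-specific binding.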

Sequence	PBM E-score
ACTTTGCA	0.259
ACCGATCA	0.175
ATTGGTAC	0.0837
TACATGCA	-0.0292
AACGAATC	0.108
CCCTTCCA	-0.186
ACGATATC	0.0478
GATTGAAC	0.189
ACCCAACT	0.0118
CAATAAAC	0.193
AATTGTTA	0.314
CAAAAACA	0.124
AATGCTCG	0.155
AACCCCGC	0.0465
AGCTTTGC	-0.0249
ACGAGAAA	0.187
AAATTGTC	0.192
AAGTCCCG	-0.245
AAGTTAAT	0.315
ACATATCC	0.105
ACTGTTCC	0.00585
TAGATGCA	-0.00507

Sequence	PBM E-score
GAGCCTCC	-0.139
AGTCGCGG	-0.291
CACTAGAG	0.0571
TGCGGAAA	0.213
ACGTTACA	0.0604
CGGGCTAG	-0.164
GGTGGAAC	0.147
TCTCGAAA	0.104
AACAGCGG	-0.146
GTCCGCAC	-0.0592
GATGAGCA	0.125
CAATTGCA	-0.167
ACGGACGT	-0.144
CACAAAGC	-0.0711
AATAGAAA	0.163
ACAAGCAG	0.0802
CACTTGCG	-0.00562
ATGTGCGC	-0.00629
CCCGACCA	0.00448
CGCTCGGC	-0.0689
AGGCGTAG	-0.194
CGGCTTCA	0.129

Sequence	PBM E-score
CAGTGGAG	-0.0254
CCACCTTC	-0.0528
CCCCGCAA	0.00531
CCTCTCAA	-0.0955
GGTTCGAA	0.173
CAGTGAGG	-0.197
AGTCCCAT	-0.17
TCTGTCCA	-0.0429
CGGATTTC	-0.0307
GAACCCTA	0.0389
AGAGTTTC	0.0522
CAGGAGTA	0.0206
AAATCTCG	0.0391
TCAGGGGA	-0.0478
CACACTTC	0.032
CCCGTCAA	-0.132
AGTAGACA	0.141
CATTGCCG	0.0273
GATGAATA	0.239
AAACAGCT	-0.0437
GAAGCAGA	-0.0137
GAAGCCAC	-0.0965

Sequence	PBM E-score
AGGTACGA	-0.0154
AACCTAAA	0.151
AGATGATA	0.16
GTGTCGAA	-0.0206
CCACCACA	-0.13
CCGACTTA	0.104
AACAAAGG	0.0298
AGCAGGAG	-0.133
AGAGTCAG	-0.2
ATTGTGTA	0.186
AACCCTGG	-0.065
AGTGGGTG	0.108
CTTTTTGA	0.137
CCTTGACA	-0.141
CGCTGTTA	-0.0679
AATGTGTG	0.152
ACTTAGCC	-0.173
ACATATCT	0.276
CATGTTCA	-0.104
AATCCTGA	0.154
